In US6696546B1, “Peptide that kills growing but not stationary cells” (The Trustees of Columbia University in the City of New York, priority 2000, dated 2004):

Molecular target: PAP-cyclin B1 interaction (Homo sapiens, UniProt P14635)
Experiment: GST-cyclin B1 pull-down assay of PAP binding
Conditions: lower concentrations of peptide (9 and 18 μM); relative to 100% of PAP I used

PAP-cyclin B1 interaction, sequence (P14635 whole entry): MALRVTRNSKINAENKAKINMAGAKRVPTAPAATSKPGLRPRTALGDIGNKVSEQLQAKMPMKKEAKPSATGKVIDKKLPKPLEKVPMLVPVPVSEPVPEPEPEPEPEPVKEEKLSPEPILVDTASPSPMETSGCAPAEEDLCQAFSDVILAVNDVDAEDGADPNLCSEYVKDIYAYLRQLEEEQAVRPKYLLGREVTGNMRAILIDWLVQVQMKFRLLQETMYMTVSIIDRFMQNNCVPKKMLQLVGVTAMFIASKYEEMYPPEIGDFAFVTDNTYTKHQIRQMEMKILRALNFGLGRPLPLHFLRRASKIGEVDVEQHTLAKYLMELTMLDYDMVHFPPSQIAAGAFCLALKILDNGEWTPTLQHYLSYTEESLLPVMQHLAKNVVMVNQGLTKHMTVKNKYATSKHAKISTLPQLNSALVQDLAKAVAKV

SKIRILVG (poly(A) polymerase cyclin recognition motif) [SEQ ID NO:1]
PAP I bound to cyclin B1: 50-100%
